Consider 88 compounds from article PMC4336329 (PLoS ONE, 2015).

Hit rate of the full screen: of about 310,000 compounds, about 2,200 (0.71%) showed an effect of 50% or more. Effects have a minus sign here. Some of the results follow.

For this assay, the target named is human ether-à-go-go-related gene (hERG) potassium channel (human, UniProt Q12809). The assay can be described thus: primary screen, population patch clamp on CHO cells stably expressing hERG.
human ether-à-go-go-related gene (hERG) potassium channel, sequence (Q12809 whole entry, looked up): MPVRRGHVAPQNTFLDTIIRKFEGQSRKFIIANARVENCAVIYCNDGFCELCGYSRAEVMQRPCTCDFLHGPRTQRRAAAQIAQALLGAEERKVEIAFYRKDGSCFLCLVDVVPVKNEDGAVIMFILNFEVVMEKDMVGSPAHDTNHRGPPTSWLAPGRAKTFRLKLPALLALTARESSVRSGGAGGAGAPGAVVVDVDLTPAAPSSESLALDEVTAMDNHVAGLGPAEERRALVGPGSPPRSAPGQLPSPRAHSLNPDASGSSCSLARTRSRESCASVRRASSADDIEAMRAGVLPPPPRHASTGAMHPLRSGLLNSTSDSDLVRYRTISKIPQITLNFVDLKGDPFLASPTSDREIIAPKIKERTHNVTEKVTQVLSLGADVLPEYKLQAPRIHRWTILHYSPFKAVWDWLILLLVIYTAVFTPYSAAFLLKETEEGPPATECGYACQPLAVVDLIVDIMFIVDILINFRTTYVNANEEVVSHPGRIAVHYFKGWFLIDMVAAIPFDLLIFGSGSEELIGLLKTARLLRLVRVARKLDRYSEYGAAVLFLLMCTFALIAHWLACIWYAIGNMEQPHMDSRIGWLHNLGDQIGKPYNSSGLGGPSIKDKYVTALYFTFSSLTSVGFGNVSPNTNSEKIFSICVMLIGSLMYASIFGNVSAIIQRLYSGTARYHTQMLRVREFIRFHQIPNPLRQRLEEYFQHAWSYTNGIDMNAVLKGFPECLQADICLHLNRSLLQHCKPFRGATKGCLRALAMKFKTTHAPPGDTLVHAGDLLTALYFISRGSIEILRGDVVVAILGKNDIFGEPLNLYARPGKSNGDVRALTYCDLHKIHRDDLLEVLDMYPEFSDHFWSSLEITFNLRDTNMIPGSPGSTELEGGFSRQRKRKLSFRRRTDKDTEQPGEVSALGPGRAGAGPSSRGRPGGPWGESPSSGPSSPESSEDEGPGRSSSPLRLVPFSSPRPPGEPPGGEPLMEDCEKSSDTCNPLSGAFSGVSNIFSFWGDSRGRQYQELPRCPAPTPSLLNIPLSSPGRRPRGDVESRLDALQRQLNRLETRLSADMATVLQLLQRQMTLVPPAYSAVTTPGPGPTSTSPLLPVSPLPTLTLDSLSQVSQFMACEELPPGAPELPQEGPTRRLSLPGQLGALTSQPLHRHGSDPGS
Regarding `CCCNC(=O)C1(CC2CC(c3ccccc3)=NO2)CCN(C(=O)C2CCCC2)CC1` (stereo not shown), the “hERG current change (%, negative = inhibition) at 1uM” value was -12%.
Regarding `CC(C)Cc1nnc(NC(=O)Cc2ccc([N+](=O)[O-])cc2)s1`, the “hERG current change (%, negative = inhibition) at 1uM” value is recorded as 5.45%.
Regarding `Cc1ccccc1NC(=O)Cn1c(=O)n(C)c2ccccc21`, the “hERG current change (%, negative = inhibition) at 1uM” value stood at 1.73%.
The same measure for `CN1CCCC(OC(=O)CCCCC(=O)OC2CCCN(C)C2)C1.Cl` (stereo not shown): 8.53%; for `O=C(Nc1ccc2c(c1)OCCO2)c1cccnc1Oc1ccc(Cl)cc1`: 8.93%; for `COc1ccc(-c2nc(CS(=O)CC(=O)NC3CCCCCC3)c(C)o2)cc1` (stereo not shown): 7.4%.
For the compound `OCc1nc2ccccc2n1CC(O)COc1ccccc1` (stereo not shown), the “hERG current change (%, negative = inhibition) at 1uM” value stood at 13.3%.
The same measure for `Cc1ccc(NC(=O)NC2(C(=O)NCc3ccccc3)CCCCC2)cc1`: 0.273%.
The same measure for `O=C1CCCN1CC(O)CS(=O)(=O)c1ccccc1` (stereo not shown): 14.4%; for `O=[N+]([O-])c1ccc(N2CCN(c3ccc(F)cc3)CC2)nc1`: 0.701%; for `COc1ccc(CC2(CO)CCN(Cc3cnn(-c4ccc(F)cc4)c3)CC2)cc1`: -79.2%.
As to `Cc1ccc2c(c1)N(CC(=O)NCCCc1ccccc1)C(=O)c1cccnc1O2`, the “hERG current change (%, negative = inhibition) at 1uM” value is on record as 0.147%.
Turning to `CCOC(=O)c1ccc(NC(=O)CN2CCN(c3ccccc3)CC2)cc1`, the “hERG current change (%, negative = inhibition) at 1uM” value was found to be 14.9%.
In the case of `Cc1cc(C(F)(F)F)n2nc(-c3cnn(C)c3C(F)(F)F)c(Cl)c2n1` it was 9.07%.
In the case of `CCC1(c2ccccc2)NC(=O)N(CC(=O)Nc2ccccc2C(=O)NC2CCCC2)C1=O` (stereo not shown), the “hERG current change (%, negative = inhibition) at 1uM” value is given as -4.23%.
Consider `O=C1c2cccc3cccc(c23)C(=O)C1(O)O`, for which the “hERG current change (%, negative = inhibition) at 1uM” value is reported as 4.79%.
On to `C[C@@H](C(=O)NC1CCCC1)N1C(=O)N2CCc3c([nH]c4ccccc34)[C@@]2(C)C1=O`, for which the “hERG current change (%, negative = inhibition) at 1uM” value is reported as 2.37%.
The same measure for `Cc1cnc(C(=O)OCC(=O)NC(C)C)cn1`: 6.41%; for `O=C(NC1CCCCC1)C12CC3CC(C1)CC(n1cncn1)(C3)C2`: 6.03%.
On to `CCc1cc(=O)oc2c(C)c(OCC(=O)NC3CC(C)(C)NC(C)(C)C3)ccc12`, for which the “hERG current change (%, negative = inhibition) at 1uM” value is recorded as 11.4%.
Consider `COc1ccc(C(=O)NNC(=O)CSc2nnc(COc3ccccc3)n2C)cc1`, for which the “hERG current change (%, negative = inhibition) at 1uM” value was -2.95%.
With `CC(C)c1ccccc1NC(=S)N1CCN(Cc2ccc3c(c2)OCO3)CC1`, the “hERG current change (%, negative = inhibition) at 1uM” value was 6.09%.
Consider `O=C1CSC(c2ccc(F)cc2)N1c1nc2ccccc2s1` (stereo not shown), for which the “hERG current change (%, negative = inhibition) at 1uM” value is recorded as -10.6%.
In the case of `COc1ccc(S(=O)(=O)NC(CC(=O)NCc2ccco2)c2ccco2)cc1` (stereo not shown) it was 8.76%; in that of `Cc1cccc(C)c1OCCCCn1cnc2ccccc2c1=O`, -3.03%; in that of `CC12CCC(=O)N1C(C(=O)Nc1ccc(SC(F)F)cc1)CS2` (stereo not shown), -19.5%.
`O=C(NC1CCCCC1)c1cc(-c2ccccc2Cl)on1`: the “hERG current change (%, negative = inhibition) at 1uM” value stood at 16.5%.
For `COc1ccc(C)cc1Nc1n[n+](-c2ccccc2)c(-c2ccc(OC)c(OC)c2OC)s1.[Cl-]`, the “hERG current change (%, negative = inhibition) at 1uM” value is given as -43.9%.
In the case of `O=C(NCc1cccnc1)c1cnc2n(c1=O)CCS2`, the “hERG current change (%, negative = inhibition) at 1uM” value was 9.33%.
With `COc1cc(OC)c(OC)cc1/C=N/n1c(-c2n[nH]c3c2CCC3)n[nH]c1=S`, the “hERG current change (%, negative = inhibition) at 1uM” value is on record as 11.3%.
As for `N#Cc1c(Cl)nc(SCc2ccccc2)nc1-c1ccccc1`, the “hERG current change (%, negative = inhibition) at 1uM” value is on record as 10.8%.
As to `Cc1ccc(N2C(=O)SC(Cc3ccccc3)C2=O)cc1` (stereo not shown), the “hERG current change (%, negative = inhibition) at 1uM” value amounted to 15.2%.
The same measure for `Cn1nnnc1SCC(=O)NNC(=O)c1ccc(Cl)cc1`: -0.975%.
In the case of `CC(C)(CC(=O)O)CC(=O)N1CCCN(c2nccc(C(F)(F)F)n2)CC1` it was 13.6%.
As to `COc1ccc(C(C)=O)cc1CSCC(=O)O`, the “hERG current change (%, negative = inhibition) at 1uM” value is recorded as 12.9%.
For the compound `COc1ccc(CCC(=O)Nc2cc3c4c(c2)CCC(=O)N4CCC3)cc1`, the “hERG current change (%, negative = inhibition) at 1uM” value was determined as 2.95%.
Regarding `CCSc1nnc(N2C(=O)CC(c3ccsc3)C3=C2CC(C)(C)CC3=O)s1` (stereo not shown), the “hERG current change (%, negative = inhibition) at 1uM” value is listed as 8.51%.
For `CC(=O)NNC(=O)N1Cc2ccccc2Oc2ccc(Cl)cc21`, the “hERG current change (%, negative = inhibition) at 1uM” value came to 13%.
For `CN1CCN(c2nc(-c3cccs3)nc3ccccc23)CC1`, the “hERG current change (%, negative = inhibition) at 1uM” value is listed as -55%.
As for `Cc1ccc2cc(CN(c3ccc(C)c(C)c3)S(C)(=O)=O)c(=O)[nH]c2c1`, the “hERG current change (%, negative = inhibition) at 1uM” value is 16.6%.
The same measure for `c1cc2cc(-c3c(-c4ccc5c(c4)OCO5)noc3-c3ccsc3)ccc2[nH]1`: 12.9%; for `C=C(C)c1cccc(C(C)(C)NC(=O)Nn2cnnc2)c1`: 9.78%; for `O=Cc1cccnc1SCc1ccccc1`: 12.7%.
`Cc1ccc(NC(=O)NCc2ccc3c(c2)OCO3)c(C)c1`: the “hERG current change (%, negative = inhibition) at 1uM” value is recorded as 10.8%.
Turning to `CCCCOC(=O)Cn1c(=O)n(CC(=O)OCCCC)c2ccccc21`, the “hERG current change (%, negative = inhibition) at 1uM” value was -1.57%.
Regarding `C/C(CCC(C)C)=N\NC(=S)Nc1cc(S(=O)(=O)N2CCOCC2)ccc1N1CCOCC1`, the “hERG current change (%, negative = inhibition) at 1uM” value was found to be 4.15%.
With `CCN(CC)CCNC(=O)CNC(=O)c1nn(-c2ccc(OC)cc2)c(=O)c2ccccc12`, the “hERG current change (%, negative = inhibition) at 1uM” value is listed as 9.31%.
In the case of `CCOc1ccc(C(C)NC(=O)Nc2ccc(F)cc2F)cc1` (stereo not shown) it was 5.38%; in that of `Cc1ccc(C(=O)Nc2ccc(OCc3ccccc3)cc2)s1`, 10.8%.
`O=C(NC[C@@H]1CCCO1)c1cccc2c1C(=O)c1ccc(Cl)cc1S2(=O)=O`: the “hERG current change (%, negative = inhibition) at 1uM” value stood at 4.75%.
In the case of `COc1ccc2c(c1)c(C(=O)CN1CCN(C(=O)c3ccco3)CC1)c(C)n2C` it was 12.7%; in that of `Cc1ccc(C)c(NS(=O)(=O)c2cc(C(N)=O)ccc2C)c1`, 2.72%; in that of `COc1cc(NC(=O)c2ccc(COc3ccccc3Br)o2)cc(OC)c1OC`, -1.71%.
Consider `COc1ccc(C(=O)Nc2ccc3nc(N4CCN(C)CC4)cc(C)c3c2)c(OC)c1`, for which the “hERG current change (%, negative = inhibition) at 1uM” value was found to be 13.3%.
Consider `CN1C(=O)c2ccc(C(=O)NCc3ccco3)cc2C1=O`, for which the “hERG current change (%, negative = inhibition) at 1uM” value came out at 13.9%.
Take `O=C1CN(C(=O)c2cc(Br)c(Br)s2)c2ccccc2N1`: the “hERG current change (%, negative = inhibition) at 1uM” value stood at 15.4%.
Regarding `O=[N+]([O-])c1ccn(-c2nc(-c3cccs3)cc(C(F)(F)F)n2)n1`, the “hERG current change (%, negative = inhibition) at 1uM” value is 12.4%.
In the case of `C/[N+]([O-])=C\CC(=O)c1ccc(-c2ccccc2)cc1` it was 9.92%; in that of `CCOc1cc(/C=N/NC(=O)Cc2ccc(C(F)(F)F)cc2[N+](=O)[O-])c(Br)cc1OC`, 10.2%.
On to `O=[N+]([O-])c1cc(/C=N/NC(=S)Nc2ccccc2Cl)ccc1Cl`, for which the “hERG current change (%, negative = inhibition) at 1uM” value amounted to 15.9%.
With `N#C/C(=C\c1ccc(/C=C(/C#N)c2nn(CCO)c(N)c2C#N)cc1)c1nn(CCO)c(N)c1C#N`, the “hERG current change (%, negative = inhibition) at 1uM” value amounted to 10.1%.
In the case of `COc1ccc(NC(=O)COC(=O)CC23CC4CC(CC(C4)C2)C3)c([N+](=O)[O-])c1`, the “hERG current change (%, negative = inhibition) at 1uM” value turned out to be 13.4%.
Turning to `Cc1onc(C(=O)NCc2ccc(F)cc2)c1[N+](=O)[O-]`, the “hERG current change (%, negative = inhibition) at 1uM” value is reported as 8.32%.
With `CC1CC(C)CN(C(=O)Cn2c(=O)oc3cc(S(=O)(=O)N4CCCC4)ccc32)C1` (stereo not shown), the “hERG current change (%, negative = inhibition) at 1uM” value came to 9.47%.
As for `O=C(NCCCN=C1NS(=O)(=O)c2ccccc21)c1ccc(S(=O)(=O)N2CCOCC2)cc1`, the “hERG current change (%, negative = inhibition) at 1uM” value stood at 2.08%.
Consider `CC(C)C(=O)c1cn(CC(=O)O)c2ccccc12`, for which the “hERG current change (%, negative = inhibition) at 1uM” value is 13.9%.
On to `N/C(=N\OC(=O)c1ccc(Cl)cc1)c1ccn[nH]1`, for which the “hERG current change (%, negative = inhibition) at 1uM” value was determined as 13.7%.
For `CC(OC(=O)c1cccc(-n2cnnn2)c1)C(=O)Nc1ccccc1F` (stereo not shown), the “hERG current change (%, negative = inhibition) at 1uM” value turned out to be 13.5%.
As to `O=C(NC(NC(=S)Nc1c(Cl)cc(Cl)cc1Cl)C(Cl)(Cl)Cl)OCc1ccccc1` (stereo not shown), the “hERG current change (%, negative = inhibition) at 1uM” value is listed as 7.07%.
Turning to `Cc1ccc(S(=O)(=O)N/N=C/c2cn(C)nc2C)cc1`, the “hERG current change (%, negative = inhibition) at 1uM” value was 4.78%.
On to `O=C(NCCc1ccccc1)c1ccccc1Cl`, for which the “hERG current change (%, negative = inhibition) at 1uM” value is 6.87%.
For the compound `NC(=O)COC(=O)c1cccc(S(=O)(=O)N2CCN(c3ccccc3)CC2)c1`, the “hERG current change (%, negative = inhibition) at 1uM” value was -13.6%.
`COc1cc(CN(C(=S)NCC(=O)NC2CC2)C2CCCC2)cc(OC)c1OC`: the “hERG current change (%, negative = inhibition) at 1uM” value is 9.89%.
The same measure for `Cl.OCCNc1nc(Nc2ccc(Br)cc2)nc2ccccc12`: 2.17%; for `CCOC(=O)N1CCN(C(=O)c2ccc3c(=O)n(-c4ccc(OC)cc4OC)c(=S)[nH]c3c2)CC1`: 11.1%; for `CC(=O)c1c2c3c(cccc3n(C)c1=O)C(=O)c1ccccc1-2`: 10.4%.
In the case of `O=C(CSc1nnnn1Cc1ccccc1)NCCc1ccccc1` it was 9.2%; in that of `O=C(NCSc1ccnc(SCNC(=O)c2ccccc2)n1)c1ccccc1`, 1.8%.
In the case of `Cc1ccc(-c2nn(C)c(=O)c3ccccc23)cc1CN1CCCCC1` it was 7.16%; in that of `CC(=O)Nc1ncc(Cc2cccc(Cl)c2Cl)s1`, 13.8%.
On to `CC(=O)Nc1cccc(NS(=O)(=O)Cc2ccc(Cl)cc2)c1`, for which the “hERG current change (%, negative = inhibition) at 1uM” value came out at 9.85%.
As to `CCCCN(CC)S(=O)(=O)N1CCC(C(=O)NCc2ccc(F)cc2)CC1`, the “hERG current change (%, negative = inhibition) at 1uM” value stood at 0.175%.
In the case of `CCOCC(=O)Nc1cccc(C(=O)OCC)c1` it was -4.24%; in that of `O=C(Nc1ccccc1F)c1cc(S(=O)(=O)N2CCCCC2)cs1`, 1.07%.
As for `COc1ccc(OC)c(-c2nc(C(N)=O)c3[nH]c(=O)n(-c4ccc(F)cc4)c3n2)c1`, the “hERG current change (%, negative = inhibition) at 1uM” value worked out at 9.08%.
As for `O=C(NC1CCCCCC1)C1c2ccccc2C(=O)N1C1CC1` (stereo not shown), the “hERG current change (%, negative = inhibition) at 1uM” value stood at 16.7%.
In the case of `C=CCNC(=O)Cn1c(=O)c2c(ncn2CCC(C)C)n(Cc2ccccc2)c1=O` it was 13.5%; in that of `CCOc1ccc(CCN2CN(C3CCCCC3)CNC2=S)cc1OCC`, 10.6%.
